# From PubChem BioAssay AID488969 (Vanderbilt High Throughput Screening Facility, 2010)
# Whole data set: some 110,000 compounds, median “z-score” near -0.1, cut for the highest 2% near 2. The list shows a part of the results. Activity calls are given as the source filed them.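 How the source made its calls: active means z-score in the third read window above 3 or below -3; inactive means the rest.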
# Target: Metabotropic glutamate receptor 8 (Rattus norvegicus) (UniProt P70579)
# Assay: rat mGluR8 modulators via GIRK flux, primary screen, cell-based, thallium flux, HTS (AID 488969)
# Details: HEK293 rat mGluR8, GIRK (G protein-gated inwardly rectifying potassium channel) thallium flux, FluoZin2; at 10 µM; stronger effect = higher value; submaximal glutamate (EC20) added with thallium
# UniProt P70579, sequence (P70579 whole entry, looked up): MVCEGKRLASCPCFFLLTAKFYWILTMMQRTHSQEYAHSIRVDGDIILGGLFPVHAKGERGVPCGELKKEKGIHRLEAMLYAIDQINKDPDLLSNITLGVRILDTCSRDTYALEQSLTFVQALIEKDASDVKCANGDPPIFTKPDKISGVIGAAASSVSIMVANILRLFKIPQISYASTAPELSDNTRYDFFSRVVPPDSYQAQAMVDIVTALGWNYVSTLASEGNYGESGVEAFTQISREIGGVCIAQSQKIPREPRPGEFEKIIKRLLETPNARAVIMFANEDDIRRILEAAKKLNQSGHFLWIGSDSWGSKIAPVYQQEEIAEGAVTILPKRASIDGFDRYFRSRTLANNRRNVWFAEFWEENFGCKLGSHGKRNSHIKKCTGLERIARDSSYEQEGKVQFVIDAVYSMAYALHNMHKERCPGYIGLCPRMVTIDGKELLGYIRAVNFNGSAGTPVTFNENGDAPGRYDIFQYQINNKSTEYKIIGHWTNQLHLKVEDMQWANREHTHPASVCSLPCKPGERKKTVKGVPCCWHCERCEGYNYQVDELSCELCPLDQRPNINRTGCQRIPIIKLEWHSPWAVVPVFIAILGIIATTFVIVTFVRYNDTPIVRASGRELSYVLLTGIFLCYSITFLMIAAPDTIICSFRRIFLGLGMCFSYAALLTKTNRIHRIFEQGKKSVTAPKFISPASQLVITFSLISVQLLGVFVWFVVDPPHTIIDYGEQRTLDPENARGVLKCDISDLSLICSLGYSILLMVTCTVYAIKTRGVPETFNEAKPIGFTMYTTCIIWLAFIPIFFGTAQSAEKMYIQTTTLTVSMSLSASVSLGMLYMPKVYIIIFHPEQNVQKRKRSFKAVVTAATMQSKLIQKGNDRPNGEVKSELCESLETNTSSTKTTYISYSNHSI
row,Structure (SMILES),z-score
1,CS(=O)(=O)NCCSc1nnnn1-c1ccccc1,0.484
2,O=C(NC(=S)Nc1cccc2cccnc12)c1ccccc1,0.356
3,Oc1ccccc1-c1nc(N2CCCC2)c2ccccc2n1,0.251
4,Cc1nonc1NC(=O)OCCN1CCOC1=O,-0.041
5,O=C1CN(C(=O)COC(=O)c2ccccc2NC(=O)c2ccco2)c2ccccc2N1,-1.64
6,Cc1cc(C)c(S(=O)(=O)N2CCN(c3ccc([N+](=O)[O-])c(NCc4ccco4)c3)CC2)c(C)c1,-0.0158
7,Nc1ncnc2nc(Sc3ccc(Cl)cc3)[nH]c12,0.0177
8,Cc1c(C(=O)Nc2ccc(F)c(F)c2)oc2ccc(S(=O)(=O)N3CCCCC3)cc12,-0.14
9,Cc1cc(C)c2c(c1)-c1cc(C)nn1C(c1ccc3c(c1)OCO3)N2 (configuration not stated),-0.0277
10,CCOC(=O)C(C)N1N=C(/C=C/c2ccc(C)cc2)CCC1=O (configuration not stated),-0.289
11,CCCCn1c(=O)n(CC(=O)NCc2ccc(C)cc2)c(=O)c2c1nc(CO)n2CCC,-0.123
12,NC(=O)c1ccc(NC(=O)CSC2=Nc3ccccc3C3CC=NN23)cc1 (configuration not stated),0.461
13,CC(C)(Oc1ccc(Cl)cc1)C(=O)N/N=C/c1cn[nH]c1-c1ccccc1,-0.22
14,Cn1c(SCC(=O)NCc2ccc3c(c2)OCO3)nnc1-c1c[nH]c2ccccc12,-0.821
15,CCC(Sc1nc(C)cc(C)n1)C(=O)O (configuration not stated),0.498
16,CC1(C)NC(=O)N(CCOCCOc2ccccc2)C1=O,-0.067
17,CC(C)[C@H](Nc1ccc(S(=O)(=O)N2CCOCC2)cc1[N+](=O)[O-])C(=O)OCC(=O)N(C(C)C)C(C)C,-0.351
18,CCOC(=O)c1c(C)[nH]c(C)c1C(=O)Cn1nnc(-c2ccccc2C)n1,-2.06
19,CCOC(=O)N1CCN(C(=O)CN(c2ccc(OCC)cc2)S(C)(=O)=O)CC1,-0.173
20,CC(C)(C)n1nnnc1C(c1ccncc1)N(Cc1ccccc1)Cc1ccco1 (configuration not stated),-0.36
21,Cc1ccccc1-c1nc2ccccc2c(=O)n1/N=C/c1ccccc1[N+](=O)[O-],-0.194
22,CC(=C/c1ccco1)/C=N/NC(=O)CSc1nnc(SCc2ccc(C)cc2)s1,-0.136

row,Structure (SMILES),z-score
1,CC1CN(C(=O)c2cc(F)c(F)cc2Cl)CC(C)O1 (configuration not stated),0.616
2,COCCN1C=C(C(=O)OC)C(c2cc3c(cc2Br)OCO3)C(C(=O)OC)=C1,0.0358
3,CC(=O)NS(=O)(=O)c1ccc(N=NN2CCOCC2)cc1,-0.373
4,C=CCC1(O)C(=O)N2C(=C1C(=O)OCC)c1ccc3ccccc3c1CC2(C)C (configuration not stated),-0.732
5,O=C(C1=NN(c2ccccc2)C2C(=O)N(c3cccc(Cl)c3)C(=O)C12)c1ccccc1 (configuration not stated),-0.175
6,O=S(=O)(c1ccc(Br)s1)N1CCN(c2ccccn2)CC1,-0.2
7,Clc1cccc2c1Sc1ccccc1CC2N1CCNCC1 (configuration not stated),0.386
8,CCOC(=O)c1c(C)[nH]c(C(=O)COC(=O)CNC(=O)c2ccc(Cl)cc2)c1C,active: 5.97
9,CC1(C)C(=O)C2(CCCCC2)C(=O)OC1c1cccs1 (configuration not stated),-0.169
10,Cc1ccc(N2CCCn3c2cc(C)c(C#N)c3=O)cc1Cl,-0.215
11,CC(C)CCN1C(=O)c2ccc(C(=O)OCn3nnc4ccccc4c3=O)cc2C1=O,0.284
12,CCOc1ccc(C(=O)NCCCN2CCCC2=O)cc1,0.207
13,CCOc1ccc(C2OC34CCCCC3C(C#N)(C#N)C2(C#N)C(=N)O4)cc1OC (configuration not stated),-0.6
14,CCCCn1ccnc1C(=O)c1cccc(S(=O)(=O)N2CC(C)CC(C)C2)c1 (configuration not stated),-0.376
15,C=CCNC(=O)c1ccc(-c2nc(-c3ccc(Cl)cc3Cl)cs2)cc1,-0.111
16,COc1cc2c(cc1OC)CN(C(=S)Nc1ccc(C)cc1C)CC2,-0.228
17,CS(=O)(=O)Nc1ccc(C(=O)N2CCN(c3ccccc3F)CC2)cc1,-0.448
18,CC(C)CC(=O)N1CCN(Cc2cccc(F)c2)CC1,-0.318
19,C=CCOC(=O)C1=C(C)OC(N)=C(C#N)C1c1ccc(OC)c(CSc2ccccn2)c1 (configuration not stated),-0.0249
20,COc1ccc(NC(=O)COC(=O)C23CCC(=O)N2c2ccccc2S3)cc1 (configuration not stated),-0.0872
21,O=C(Cc1ccc(Cl)cc1)Nc1ccccc1Sc1ccccc1,-0.361
22,Cc1nn2c(-c3ccc(Cl)cc3Cl)nnc2s1,0.15

row,Structure (SMILES),z-score
1,O=C(c1cccc2ccccc12)N1CCN(c2ccc([N+](=O)[O-])c(NCc3ccco3)c2)CC1,-0.218
2,Cc1cc(NC(=O)CSC2=NCCS2)no1,-0.162
3,COc1cccc(OCCOCCNCCO)c1,0.822
4,Cn1c(N)c(C(=O)COC(=O)CSc2ccc(Cl)cc2)c(=O)n(C)c1=O,-0.34
5,CCOc1ccc(N(CC(=O)NC(C)CC)S(=O)(=O)c2c(C)noc2C)cc1 (configuration not stated),0.196
6,CCOC(=O)NCC(C#CCN(CC)CC)N(CC)CC (configuration not stated),-0.109
7,COc1ccc(-n2c(-c3cccc(C)c3[N+](=O)[O-])n[nH]c2=S)cc1,-0.217
8,Cc1ccc(OCC(=O)NC(=S)Nc2ccc(Br)c(C)n2)cc1,1.02
9,CC/C(=N\NC(=S)Nc1ccc(OC)cc1)c1ccc(OC(F)F)cc1,active: 7.5
10,CCN(CC)S(=O)(=O)c1ccc(N2CCOCC2)c(NC(=O)c2c3c(nc4ccccc24)CCC3)c1,-0.0797
11,CC(C#N)On1c(SC(C)C#N)nc2ccccc2c1=O (configuration not stated),-0.416
12,O=C(CN1C2=NCCN2c2ccccc21)N1CCOCC1,0.0491
13,CS(=O)(=O)N1CCN(C(=O)NC23CC4CC(CC(C4)C2)C3)CC1,0.72
14,Cc1cc(C)c(S(=O)(=O)Nc2ccc[nH]c2=O)c(C)c1,0.21
15,Cc1c(NC(=O)/C(C#N)=C/C2CC=CCC2)c(=O)n(-c2ccccc2)n1C (configuration not stated),-0.166
16,CCOc1ccccc1C(=O)N1CCN(c2cccc(Cl)c2)CC1,0.326
17,COc1ccc(OC)c(/C=C/C(=O)c2ccc(Cl)cc2)c1,-0.0712
18,Cc1nc(SCC(=O)c2ccc(Cl)cc2)c([N+](=O)[O-])[nH]1,-0.477
19,CC12CN(S(=O)(=O)c3ccccc3)CC(C)(CN(S(=O)(=O)c3ccccc3)C1)C2,-0.114
20,Cc1nnc(NC(=O)c2ccncc2)s1,-0.232
21,Cc1c(C(=O)Nc2ccc(-c3nnc4n3CCCCC4)cc2)oc2c1ccc1ccccc12,-0.227
22,O=C1CC(c2ccc(S(=O)(=O)NCc3ccccc3)cc2)CN1 (configuration not stated),-0.121

row,Structure (SMILES),z-score
1,Cc1nc(NCc2ccccc2)[nH]c(=O)c1CCC(C)C,-0.321
2,O=C1CC(c2ccccc2)n2nc(N3C(=O)CCC3=O)nc2N1 (configuration not stated),0.146
3,CCOc1ncccc1C(=O)OCc1ccccc1,-0.268
4,CCOC(=O)CSc1nnc2cc(C)c3ccccc3n12,-1.09
5,CCOC(=O)c1cc(C(O)(C(F)(F)F)C(F)(F)F)c(/N=C/N(C)C)o1,-0.281
6,O=C(CN1CCN(Cc2ccccc2)C1=O)NCc1ccc(Cl)cc1,-0.177
7,CC(=O)C1=C(C)NC(SCC(=O)c2ccc(C)cc2)=C(C#N)C1c1ccco1 (configuration not stated),-0.0288
8,COc1ccc(-c2cc(C(=O)N3CCN(c4ccccc4)CC3)no2)cc1OC,-0.94
9,Cc1cccc(N2CCN(C(=O)c3cc4c(=O)n(C)c5ccccc5c4n3C)CC2C)c1 (configuration not stated),-1.07
10,COc1ccccc1-c1nnc2sc(-c3cnccn3)nn12,-0.623
11,COC(=O)[C@H](Cc1ccccc1)NC(=O)NCC1CCCO1 (some centres not stated),-0.453
12,O=[N+]([O-])c1ccc2nc(/C=C/c3ccc(Cl)cc3)[nH]c2c1,-0.327
13,Cc1c(NS(=O)(=O)c2ccc3c(c2)c(=O)n(C)c(=O)n3C)c(=O)n(-c2ccccc2)n1C,-0.158
14,Cc1ccc(S(=O)(=O)N2CCN(CC(=O)N/N=C/C=C/c3ccccc3)CC2)cc1,0.941
15,CC(C)Nc1nc(N(c2ccccc2)c2ccccc2)nc(-n2ccnc2)n1,-0.425
16,CCCn1nnnc1SCC(=O)N1CCCc2ccccc21,-0.102
17,Cc1noc(C)c1C(=O)NCCc1ccc(Cl)cc1,-0.377
18,COc1ccc(C(=O)N(Cc2nc(-c3ccc(C)cc3)no2)C(C)C)cc1OC,-0.736
19,COc1ccc(N(Cc2cc3cc(OC)ccc3[nH]c2=O)C(=O)c2cccnc2)cc1,-0.168
20,COc1ccc(C2(O)CCN(Cc3nnnn3Cc3ccc(C)cc3)CC2)cc1,0.0757
21,CCC(NC(=O)c1ccccc1NC(=O)c1ccco1)C(=O)NNC(=O)c1ccc(OC)cc1 (configuration not stated),-0.125
22,COc1ccc(C2CC(c3ccccc3)=NN2C(=O)COC(=O)C2CC2)cc1 (configuration not stated),-0.418

row,Structure (SMILES),z-score
1,COc1ccc(Oc2ccc(N/C=C3\CCCC3=O)cc2)cc1,-0.269
2,CCCN(CCC)CCCNC(=O)CS(=O)Cc1nc(-c2ccc(OC)c(OC)c2)oc1C (configuration not stated),-0.1
3,Cc1ccc(S(=O)(=O)NCC(=O)OCC(=O)c2ccc(Br)s2)cc1,-0.0701
4,Cc1cc(N/N=C(/CCC(=O)O)C(=O)O)nc2ccccc12,-0.145
5,CCOC(=O)N1CCN(C(=O)CSc2nnc(-c3cccc(OC)c3)o2)CC1,-0.788
6,COc1ccc(NC(=O)CSc2nnc(Cc3cccs3)n2-c2ccc(C)cc2)cc1,-0.131
7,CCOC(=O)c1[nH]c2ccc(OC)cc2c1NC(=S)N1CCN(c2cccc(C)c2C)CC1,-0.0911
8,Cc1cccc(-n2c(SCCC(=O)O)nnc2-c2cccs2)c1C,-2.58
9,Cc1sc2nc(SCC(=O)NCc3ccco3)n(CCc3ccccc3)c(=O)c2c1C,0.83
10,CCC(C)NC(=O)CN(c1cc(Cl)ccc1OC)S(C)(=O)=O (configuration not stated),-0.17
11,CCCCCn1cnc2sc(-c3ccccc3)cc2c1=O,-0.142
12,Cc1ccccc1-n1cc(C(=O)c2cc(Cl)ccc2O)cc(C#N)c1=O,-0.448
13,CCOc1ccc(Br)cc1S(=O)(=O)Nc1ccc(NC(=O)c2ccccc2F)cc1,-0.316
14,COc1cc(C(=O)Nc2nccs2)cc(OC)c1OC,-0.53
15,CN(Cc1nc(-c2ccncc2)no1)S(=O)(=O)c1ccccc1,0.00952
16,CN1CCCC(OC(=O)CCCCC(=O)OC2CCCN(C)C2)C1 (configuration not stated),-0.765
17,COc1ccc(/C(N)=N/OC(=O)C2CCC(=O)N2S(=O)(=O)c2ccc(C)cc2)cc1OC (configuration not stated),-0.516
18,CC/C(=C/c1sc2ccccc2[n+]1CC)SC,-0.291
19,CCOCCCn1c(-c2ccc(Cl)cc2)n[nH]c1=S,-0.227
